# Measured values reported in PMC6919601, “Identification of Plasmodium dipeptidyl aminopeptidase allosteric inhibitors by high throughput screening” (PLoS ONE, 2019).
# The campaign covered roughly 110,000 compounds. About 230 (0.21%) showed an effect of 50% or more. Some of the results follow.
# Target: DPAP1 (Plasmodium falciparum, UniProt Q8IIJ9)
# Assay: primary screen, percent inhibition; read by cleavage of a fluorogenic dipeptide substrate; higher = more effect of the substance
# Set-up: species or system P. falciparum D10 trophozoite lysates; single well
# 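Also: 30 min substrate incubation versus DMSO and 10 µM JCP410 controls.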
# DPAP1, sequence (Q8IIJ9 whole entry, looked up): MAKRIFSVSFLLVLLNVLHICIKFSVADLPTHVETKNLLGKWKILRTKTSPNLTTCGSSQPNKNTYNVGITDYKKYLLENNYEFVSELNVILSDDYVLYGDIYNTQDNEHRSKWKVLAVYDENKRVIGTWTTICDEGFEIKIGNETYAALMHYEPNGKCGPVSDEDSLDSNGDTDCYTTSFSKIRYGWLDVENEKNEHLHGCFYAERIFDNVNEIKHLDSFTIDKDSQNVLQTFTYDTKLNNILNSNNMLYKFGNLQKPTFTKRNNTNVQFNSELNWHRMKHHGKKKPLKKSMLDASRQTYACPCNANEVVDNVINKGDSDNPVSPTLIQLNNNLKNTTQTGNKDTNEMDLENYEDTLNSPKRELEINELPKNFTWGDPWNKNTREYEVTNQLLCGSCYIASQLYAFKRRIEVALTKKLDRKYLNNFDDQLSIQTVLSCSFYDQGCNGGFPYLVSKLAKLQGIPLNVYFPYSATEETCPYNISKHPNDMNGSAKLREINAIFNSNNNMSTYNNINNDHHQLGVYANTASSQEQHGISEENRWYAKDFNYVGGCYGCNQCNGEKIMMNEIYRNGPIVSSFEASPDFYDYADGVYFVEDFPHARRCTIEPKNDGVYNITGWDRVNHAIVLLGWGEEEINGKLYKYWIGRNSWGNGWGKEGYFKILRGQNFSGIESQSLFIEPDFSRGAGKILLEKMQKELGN
row,Structure (SMILES),% Inhibition @ 10 uM [%]
1,O=C(O)c1ccc(CN2CCN(c3cccc(Cl)c3)CC2)cc1,-6.21
2,O=c1oc2c(O)cccc2cc1-c1nc2ccccc2[nH]1,-2.41
3,CCN(CC)c1ccc(Nc2nc(-c3ccccn3)cs2)cc1,-6.22
4,Cc1ccc(C)c(NS(=O)(=O)c2c(C(C)C)cc(C(C)C)cc2C(C)C)c1,-2.35
5,Cc1ccc(S(=O)(=O)N(C)c2ccc(C(=O)N3CCC(C)CC3)cc2)cc1,-6.38
6,COc1ccc2nc(NC(=O)c3cccnc3O)sc2c1,0.163
7,CCN1CCN(Cc2ccc(OC)c(C)c2)CC1,-3.56
8,N#CC1=C(N)N(c2ccc(S(N)(=O)=O)cc2)C2=C(CCC2)C1(C(F)(F)F)C(F)(F)F,0.803
9,c1ccc(N2CCN(Cc3csc4c3CCCC4)CC2)nc1,3.36
10,Clc1cccc(CN2CCN(c3ccccc3)CC2)c1,-1.92
11,CC(C)NC(=O)C1CCC(=O)N1Cc1ccccc1Cl (centres unmarked),-1.79
12,COc1ccc(/C=C2/SC(Nc3ccc(O)cc3)=NC2=O)cc1,-0.865
13,NC(=O)Cc1ccc(OCC(=O)Nc2ccccc2F)cc1,-4.52
14,CCCNC(=O)Cn1c(SCc2ccccc2C)nc2ccncc21,-2.37
15,O=C1c2ccccc2C(=O)N1c1c(F)c(F)c(C(F)(F)F)c(F)c1F,1.8
16,Cc1nc2ccc(S(=O)(=O)NC(C(=O)NCc3ccco3)C(C)C)cc2s1 (centres unmarked),1.62
17,CCNC(=O)C(Sc1ccccc1)c1ccccc1 (centres unmarked),-2.87
18,Cc1ccc(N2CCN(S(=O)(=O)N(C)C)CC2)cc1C,-2.28
19,Cc1ccc(CSc2nc3ccc(C(=O)NCCCOC(C)C)cc3n2C)cc1,-2.88
20,O=C(O)c1cc2cc([N+](=O)[O-])ccc2cc1O,-9.98
21,O=C1OC(c2cccc3ccccc23)=N/C1=C\c1coc2ccccc2c1=O,9.08
22,COc1ccc(C2C(C#N)=C(N)OC3=C2C(=O)CC(C)(C)C3)cc1COc1ccc(F)cc1F (centres unmarked),5.66
23,O=C(NCCc1ccccc1Cl)c1cnn2c(C(F)F)cc(-c3ccccc3)nc12,4.08
24,COCCCN1C(=O)S/C(=C/c2ccc(O)c(OC)c2)C1=O,-1.04
25,CC1=CC2=NC(=O)/C(=C\c3cccn3CCCOc3c(C)cccc3C)C(=N)N2O1,-5.1
26,CCOC(=O)c1c(NC(C)=O)sc2c1CCc1ccccc1-2,-2.15

row,Structure (SMILES),% Inhibition @ 10 uM [%]
1,COc1ccccc1C1CC(=O)NC(SC)=C1C#N (centres unmarked),-3.19
2,NC(CC(=O)NC(c1ccccc1)(c1ccccc1)c1ccccc1)C(=O)O (centres unmarked),0.343
3,CC(C)(C)OC(=O)N1CCC(c2c(C(=O)O)cnn2-c2ccccc2Cl)CC1,0.446
4,Cc1cc(OCc2noc(-c3ccc4c(c3)OCO4)n2)ccc1Cl,-8.39
5,Cc1ccc(Cn2ccc(NC(=O)c3cc(-c4ccc5c(c4)OCO5)on3)n2)cc1,0.628
6,Cc1nnc2c(N3CCN(Cc4ccccc4)CC3)nc3ccccc3n12,6.58
7,CNC(=O)c1nnc(-c2ccc3c(c2)OCO3)o1,1.79
8,Cc1cc(NCCO)nc(-c2ccc(Br)cc2)n1,0.247
9,Cc1ccc2c(c1)c1cccc3c1n2CCN3CCC(N)=O,8.22
10,Cc1ccc2nc(-c3ccc(NC(=O)C(C)C)cc3)sc2c1,-1.62
11,Cc1ccc(CN(Cc2ccco2)C(=S)NCC(=O)NC(C)c2ccccc2)cc1 (centres unmarked),7.47
12,OC(c1ccc(Cl)cc1)C(c1ccccc1)N1CCCCC1 (centres unmarked),-5.59
13,Cc1[nH]c2ccccc2c1CCNCc1ccc(F)cc1F,-2.45
14,Cc1nn(C)cc1NC(=O)c1cc2n(n1)C(C(F)(F)F)CC(c1ccco1)N2 (centres unmarked),1.72
15,CCOc1ccccc1/C=c1\sc2nc(=O)c(Cc3ccc(Cl)cc3)nn2c1=O,-1.11
16,Cc1cc(OC(CN(C)C)CN(C)C)nc2ccccc12,2.31
17,COc1cccc(C2NCCc3c2[nH]c2ccccc32)c1 (centres unmarked),-3.62
18,COc1ccc(N2CC(C(=O)Nc3ccccn3)CC2=O)cc1 (centres unmarked),-8.09
19,CC(C)Oc1ccc(C(=O)C2=C(O)C(=O)N(CCN3CCOCC3)C2c2ccc(O)cc2)cc1 (centres unmarked),-5.93
20,COc1ccc2c(c1OC)C(=O)N(c1ccccc1C)C2=O,2.69
21,CCN(CC)CCn1c(C)nc2ccccc21,-9.87
22,Clc1nc(NCCN2CCOCC2)nc(NCc2ccccc2)n1,-4.24
23,CC1CCc2nc3ccc(S(=O)(=O)N4CCC(C(=O)N5CCCC5)CC4)cc3c(C(=O)O)c2C1 (centres unmarked),-4.85
24,CC1=C(C(=O)Nc2ccccc2C)C(c2cccc(Br)c2)n2nc(CCCO)nc2N1 (centres unmarked),1.08
25,CCOc1ccc(CC(=O)Nc2ccc(C(N)=O)cc2)cc1OCC,1.84
26,CCOC(=O)c1nnc(-c2cccnc2)o1,0.974

row,Structure (SMILES),% Inhibition @ 10 uM [%]
1,CCC1CCCCN1C(=O)Cn1nc([N+](=O)[O-])c(Br)c1C (centres unmarked),-6.01
2,Cc1ccc2c(CNCc3ccc(OC(C)C)cc3)c(C(=O)O)[nH]c2c1,-4.46
3,CCN(CC)CCNC(C)Cc1cccc(C(F)(F)F)c1 (centres unmarked),-4.75
4,Cn1cc(CC(=O)NCc2ccc(F)cc2)c2ccccc21,-4.76
5,CCOc1ccc2nc(NC(=O)c3ccc(S(=O)(=O)N(CC)CC)cc3)sc2c1,11.1
6,COc1cccc(C(=O)Nc2cc3oc4ccccc4c3cc2OC)c1,17.2
7,O=C(NCc1cccnc1)C1CCN(S(=O)(=O)N2CCC3(CC2)OCCO3)CC1,-6.75
8,OCCN(Cc1ccccc1)Cc1ccc(C(F)(F)F)cc1,3.04
9,CCCC[C@H](NC(=O)[C@H](CC(C)C)NC(=O)OCc1ccccc1)C(=O)c1nc2ncccc2o1,2.87
10,COc1ccc(-n2c(C)c3c(C)nn4cc(-c5ccc(C)o5)cc4c3c2C)cc1,0.558
11,Cc1ccnc(NS(=O)(=O)c2ccc(NC(=O)C(C)Oc3cccc(Cl)c3)cc2)n1 (centres unmarked),13.9
12,CCn1c2ccccc2c2cc(CN3CCN(Cc4ccccc4)CC3)ccc21,-4.84
13,COc1cc(C(CC(=O)N2CCOCC2)N2Cc3ccccc3C2=O)cc(OC)c1OC (centres unmarked),-0.591
14,CCN(CC)C(=O)c1c(C)nn(S(=O)(=O)c2ccc(Cl)cc2)c1SC,4.81
15,CC(C)c1ccc(CNC(=O)c2cccc3ccccc23)cc1,-2.5
16,CC1CCC(N[C@H]2CC[C@H](O)CC2)C1 (some centres unmarked),0.273
17,COc1ccccc1C(=O)NCc1nc(-c2ccccc2)no1,2.14
18,CCOC(=O)c1cnc2cc(OC)ccc2c1O,-0.711
19,CCOC(=O)c1ccc(-c2ccc(C=C3C(=O)c4ccccc4C3=O)o2)cc1,-2.15
20,CO/C(O)=C1/C(C)=NC2=C(C(=O)CC(c3ccccc3)C2)C1c1ccc(O)cc1 (centres unmarked),7.53
21,COc1ccc(CNC(=O)C(CS(=O)(=O)Cc2ccccc2)N2Cc3ccccc3C2=O)cc1 (centres unmarked),6.74
22,CC1(C)CC(=O)C(C(=N)NC(=O)c2ccccc2)=C(O)C1,-9.24
23,O=C(Cn1ncc2c(=O)oc3ccccc3c21)Nc1nccs1,1.24
24,Cc1ccc(-c2cs/c(=N\c3cccc(Cl)c3)n2CCO)cc1,4.74
25,CCOc1cc(/C=C/C(=O)O)ccc1OCc1ccccc1C#N,-0.339
26,COc1cccc(-n2ccc3ccccc32)c1,-3.58

row,Structure (SMILES),% Inhibition @ 10 uM [%]
1,Cc1ccc(CN2C(=O)CCC2C(=O)NCCCN2CCC(Cc3ccccc3)CC2)cc1 (centres unmarked),3.24
2,CCc1c(C)sc(NC(=O)c2cc(OC)c(OC)c(OC)c2)c1C(N)=O,22.9
3,CCc1ccc(-c2cc3c(=O)n(CC(=O)NCCc4ccc(Cl)cc4)nc(C)n3n2)cc1,-1.08
4,NC(=O)C1CCCN(C2CCN(CCc3ccccc3)CC2)C1 (centres unmarked),5.03
5,CCN(CC)C(=O)c1csc(-c2ccccc2)c1-c1ccccc1,5.98
6,Fc1nc(N2CCCC2)c(F)c(Oc2ccc(Br)cc2)c1F,-1.6
7,CC(C)(C)C1CCc2c(sc(NC(=O)c3ccc(Cl)cc3)c2C(=O)NCCO)C1 (centres unmarked),0.24
8,O=C(c1cccnc1)N1CCN(C(=O)c2ccco2)CC1,7.1
9,O=C(CCC(=O)N1CC=C(c2c[nH]c3ccccc23)CC1)NC1CCCCCC1,1.31
10,COc1ccc(CN(C(=O)c2oc3ccccc3c2C)C2CCS(=O)(=O)C2)cc1 (centres unmarked),-6.94
11,Cn1cccc1Cc1nnc(SCC(=O)NCc2ccc(F)cc2)n1CCc1ccccc1,5.77
12,COc1ccccc1Nc1nc2c(s1)CCC2,3.69
13,NC(=S)C1COc2ccccc2O1 (centres unmarked),6.12
14,COc1cc(Cl)cc(/C=C2/NC(=O)N(c3cccc(Cl)c3)C2=O)c1O,-1.51
15,O=C(CSc1nnnn1-c1ccccc1)Nc1nsc(-c2ccc(Cl)cc2)n1,0.778
16,CCOc1ccccc1C(=O)Nc1cc(C)cc(C)c1,-5.99
17,CCOc1ccc2[nH]c3nc4ccccc4nc3c2c1,-3.75
18,O=C1OC(c2ccccc2Br)=N/C1=C\c1ccc(Br)o1,-0.48
19,Cc1nn(C(=O)c2cccs2)c(C)c1NC(=O)c1cccs1,4.61
20,CCOC(=O)C1=C(CS(=O)(=O)c2ccc(C)c(C)c2)NC(=O)NC1c1ccc(OCC)cc1 (centres unmarked),-0.431
21,NC(=O)c1c(NC(=O)COc2ccccc2Cl)sc2c1CCCCCC2,3.69
22,O=c1oc2ccccc2c2oc3cc(O)c(O)cc3c12,5.12
23,Cc1ccc(C)c(OCCCCc2c(C)n[nH]c2C)c1,0.0792
